In patent US20080138834A1, “Cellular antagonists of GPCR physiology” (Institute Pasteur Korea, priority 2006, published 2008):

Test system: endothelin A receptor
Conditions: 10-100 ng/mL EGF, with or without ET-1 and erbstatin

ETAR internalization on EGFR activation: not affected
B1: EGF: growth factor used to activate the EGF receptor (protein, UniProt P01133 23-1207, looked up)
Pro-epidermal growth factor: PQHWSCPEGTLAGNGNSTCVGPAPFLIFSHGNSIFRIDTEGTNYEQLVVDAGVSVIMDFHYNEKRIYWVDLERQLLQRVFLNGSRQERVCNIEKNVSGMAINWINEEVIWSNQQEGIITVTDMKGNNSHILLSALKYPANVAVDPVERFIFWSSEVAGSLYRADLDGVGVKALLETSEKITAVSLDVLDKRLFWIQYNREGSNSLICSCDYDGGSVHISKHPTQHNLFAMSLFGDRIFYSTWKMKTIWIANKHTGKDMVRINLHSSFVPLGELKVVHPLAQPKAEDDTWEPEQKLCKLRKGNCSSTVCGQDLQSHLCMCAEGYALSRDRKYCEDVNECAFWNHGCTLGCKNTPGSYYCTCPVGFVLLPDGKRCHQLVSCPRNVSECSHDCVLTSEGPLCFCPEGSVLERDGKTCSGCSSPDNGGCSQLCVPLSPVSWECDCFPGYDLQLDEKSCAASGPQPFLLFANSQDIRHMHFDGTDYGTLLSQQMGMVYALDHDPVENKIYFAHTALKWIERANMDGSQRERLIEEGVDVPEGLAVDWIGRRFYWTDRGKSLIGRSDLNGKRSKIITKENISQPRGIAVHPMAKRLFWTDTGINPRIESSSLQGLGRLVIASSDLIWPSGITIDFLTDKLYWCDAKQSVIEMANLDGSKRRRLTQNDVGHPFAVAVFEDYVWFSDWAMPSVMRVNKRTGKDRVRLQGSMLKPSSLVVVHPLAKPGADPCLYQNGGCEHICKKRLGTAWCSCREGFMKASDGKTCLALDGHQLLAGGEVDLKNQVTPLDILSKTRVSEDNITESQHMLVAEIMVSDQDDCAPVGCSMYARCISEGEDATCQCLKGFAGDGKLCSDIDECEMGVPVCPPASSKCINTEGGYVCRCSEGYQGDGIHCLDIDECQLGEHSCGENASCTNTEGGYTCMCAGRLSEPGLICPDSTPPPHLREDDHHYSVRNSDSECPLSHDGYCLHDGVCMYIEALDKYACNCVVGYIGERCQYRDLKWWELRHAGHGQQQKVIVVAVCVVVLVMLLLLSLWGAHYYRTQKLLSKNPKNPYEESSRDVRSRRPADTEDGMSSCPQPWFVVIKEHQDLKNGGQPVAGEDGQAADGSMQPTSWRQEPQLCGMGTEQGCWIPVSSDKGSCPQVMERSFHMPSYGTQTLEGGVEKPHSLLSANPLWQQRALDPPHQMELTQ
modifications: Pro-epidermal growth factor
